# Assay results published in ChEMBL document CHEMBL4888484, “Replenishing the malaria drug discovery pipeline: Screening and hit evaluation of the MMV Hit Generation Library 1 (HGL1) against asexual blood stage Plasmodium falciparum ,using a nano luciferase reporter read-out” (2022).
# In all, about 150,000 compounds went through this assay and about 540 (0.36%) showed an effect of 50% or more. The list shows a part of the results.
# Tested on: Plasmodium falciparum
# Assay: Primary screen in NF54 nanoGlo assay, in single point, at 2uM, 72h; a lower Z score goes with more inhibition
# Format: functional, Erythrocyte
# Conditions: timepoint 72 hour
Structure (SMILES),% Inhibition [%],Z score
Cc1nn(C)cc1-c1csc(C2(N)CCCC2)n1,-2,0.22
O=S(=O)(c1ccc(Cl)cc1)N1CCC2(CC1)NCCN=C2NC1CCCC1,-4,0.56
CCc1cnc(C)nc1N1CC[C@@](O)(C2CCOCC2)[C@H](C)C1,-4,0.76
CC1CN(C(=O)Cn2cnc3ccccc3c2=O)CC(C)O1 (stereo not given),-4,0.63
Cc1ccc(OCC(=O)Nc2ccc3oc(-c4cccc5ccccc45)nc3c2)c(-n2cnnc2)c1,-2,0.21
Cc1ccc(CNC(C)(C)CO)c(C)c1,-8,1.14
O=C(NCCn1ccnc1)c1cc(-c2ccsc2)n[nH]1,-15,1.64
COc1ccc(NC(=O)CN2CCc3nc(C)[nH]c(=O)c3CC2)cc1Cl,-8,1.11
C1CC(C(Nc2nnc(C3CC3)o2)C2CCC2)C1,14,-1.95
CN(C)[C@H](c1ccc(F)cc1)c1nc(CC(N)=O)nn1CC(F)(F)F,3,-0.62
Cc1cnc(CNC(=O)N[C@@H](C)c2cnn(C(C)C)c2)s1,-1,0.17
COc1ccc2c(n1)N(C)CCN2C(=O)[C@H]1CCc2nc(C)nn2C1,0,-0.02
CC(C)CS(=O)(=O)NC[C@H](C)N1CCN(C)CC1,-11,1.8
CC(C)n1cc(S(=O)(=O)NCc2cccc(Cl)c2)c2cccnc21,7,-1.18
CN(Cc1ccccn1)c1ccnc(C2CCCC2)n1,-1,0.09
COc1ccc(CN2C(=O)Cc3ccccc3[C@@H](C(=O)O)[C@@H]2c2ccccc2)c(OC)c1,0,-0.05
O=C(c1cnc(-c2cccnc2)nc1)N1CCc2sccc2C1,-5,0.64
O=C(NCc1ccccc1)c1cc(S(=O)(=O)N2CCCCC2)cs1,-10,1.13
COc1ccccc1-c1ccc(C(=O)N2CCCNC(=O)[C@@H]2C)s1,-10,1.82
COC(=O)N[C@H](C(=O)Nc1nnn(-c2ccc(F)cc2)c1C)C(C)C,-1,0.11
CN(CCO)c1c(Cl)cccc1C#N,-6,0.64
O=C(NCc1cccc(N2CCCC2)c1)[C@H]1CCCN(Cc2ccco2)C1,-15,1.62

Structure (SMILES),% Inhibition [%],Z score
Cn1c(C2CCN(C(=O)Nc3ccc(C(F)(F)F)cc3)CC2)cc(=O)n2nccc12,-7,1.17
CN(Cc1nccn1C(F)F)Cn1c(=S)oc2ccccc21,5,-0.41
O=C(NCC[C@H]1CCCCN1)c1cccc(-c2cc(O)c(F)c(F)c2)c1,-10,1.22
COCCOCC(=O)N(C1CCC(C)CC1)[C@@H](C)c1ccc(OC)cc1OC (stereo not given in full),-9,1.32
Cc1ccc(S(=O)(=O)Nc2cncc(N3CCCC3)n2)cn1,-20,2.03
Cc1ccc(S(=O)(=O)N[C@H](c2c(C)nn(-c3ccccc3)c2C)C(F)(F)F)s1,-4,0.53
Cc1cc(C)cc(CN2C(=O)NC3(CCOCC3)C2=O)c1,-21,2.48
Cc1ccc(-n2nc(C)c3c(=O)n(CC(=O)N4CCN(c5cc(Cl)ccc5C)CC4)ccc32)cc1,-13,2.07
CC(C)c1cc(CN(C)C(=O)CN2CCCCCCC2)on1,-19,2.56
C=CCN(Cc1ccc(F)cc1)C(=O)CCNC(C)=O,-16,2.05
O=C(NCc1ccc(F)cc1)C1[C@@H]2C=C[C@@]3(CN(Cc4ccccc4Cl)C(=O)[C@H]13)O2 (stereo not given in full),-9,1.29
O=C1O[C@H]2CN(C3Cc4ccccc4C3)C[C@H]2N1Cc1ccccn1,4,-0.66
FS(F)(F)(F)(F)c1cccc(-n2cc(C3CCCCC3)nn2)c1,-1,0.14
CC1(C)CCc2nc(NC(=O)[C@@H]3COCCO3)sc2C1,-8,1.06
CC(C)CC(=O)[C@H]1CCCN(C(=O)CNC(N)=O)C1,-7,0.9
Nc1ncccc1CN1CCC[C@H](CNC(=O)c2ccco2)C1,4,-0.76
CN(C)C(=O)N1C[C@H]2CC[C@@H](C1)N(C(=O)c1c[nH]c3c(F)cccc3c1=O)C2,-1,0.19
c1ccc(-c2noc(-c3ccc(NC4CCCCC4)nn3)n2)cc1,45,-10.06
COCc1csc(Cc2cn3ccccc3n2)n1,5,-0.99
CCOc1ncccc1NC(=O)N1CCC[C@H]1c1cccs1,15,-2.01
CN1C2CCC1CN(C(=O)NCCc1c[nH]c3ccc(F)cc13)CC2 (stereo not given),3,-0.27
O=C(N[C@H]1CCCC[C@@H]1F)c1ccc[nH]1,-1,0.08

Structure (SMILES),% Inhibition [%],Z score
O=C1C[C@]2(CC2(c2ccccc2)c2ccccc2)C(=O)N1c1ccc(Cl)cc1Cl,8,-1.47
CCn1nc(C)c(CN2CCc3c(c(CCC(=O)N4CCCC4)nn3C)C2)c1C,-8,0.95
CCN(CC)CC(=O)N1CCC(c2nc(C(F)(F)F)c[nH]2)CC1,3,-0.55
CCc1ccc(CN2C(=O)CC[C@@]2(C)C(=O)NC2CCCCCCC2)cc1,-8,0.92
O=c1ccccn1CC1CCC(F)(F)CC1,-4,0.7
Cn1nnc2cc(NCC34CC3CN(C(=O)OC(C)(C)C)C4)ccc21 (stereo not given),-10,1.28
C=CC[C@]1(CO)CCCN(CCOCC)C1,-16,2
CC(=O)Nc1ccc(S(=O)(=O)NC[C@](C)(O)c2cc3ccccc3o2)cc1,0,-0.08
O=C(Cc1ccccc1F)Nc1cnn(CC2CC2)c1,-1,0.12
CCn1cnnc1[C@@H]1CCCCN1C(=O)CCc1c[nH]c2ccccc12,-12,1.4
Cc1cc(N2CCCOCC2)n2nccc2n1,8,-0.92
C=C1CCC(NC(=O)c2cc(C)n(C)n2)CC1,-4,0.79
CCCCc1nc(Cn2nnnc2C)no1,-4,0.6
N#Cc1cnn(CC2CCC(F)(F)CC2)c1,0,-0.06
O=C(NC[C@H]1CCCO1)Nc1ccccc1-c1cc2ccccc2[nH]1,27,-3.06
CCn1cc(CNC(=O)c2ccc3nc(-c4ccc(F)cc4)cn3c2)cn1,-10,1.85
CCc1cc(C(=O)N2C[C@H](C(=O)N3CCOCC3)[C@@H](C)C2)n(C)n1,-8,1.08
Clc1cnc2nc(N3CCO[C@H](c4nccs4)C3)ccc2c1,-12,1.87
C[C@@H](c1ccccn1)N(C)c1nc(N)nc2nc[nH]c12,5,-0.59
COc1ccc(C2CN(Cc3ccccn3)CC2CN(Cc2ccc(F)cc2)C(C)=O)cc1 (stereo not given),15,-1.72
O=C(Cc1cc(F)ccc1Br)N[C@H]1CC12CCNCC2,-5,0.87
Cc1nc(C)c(C(=O)N(C)Cc2csc(-c3cccs3)n2)s1,-12,2.25

Structure (SMILES),% Inhibition [%],Z score
C[C@@H](CCNc1nc(C(N)=O)cs1)NC(=O)OC(C)(C)C,-3,0.51
O=C(NC[C@H]1CCCO1)c1nc(-c2ccnc(N3CCCC3)c2)no1,-10,1.78
CC1(C)CN(C(=O)COc2ccccc2-c2ccccc2)CCS1(=O)=O,3,-0.41
C[C@H](NCC1OCCO1)c1cnn(C)c1,-15,1.69
C#CCCC1(CCC(=O)Nc2ccn(CC(N)=O)n2)N=N1,0,-0.01
C[C@@H](CO)NC(=O)Nc1ccc(F)cn1,-12,1.67
Cn1nnc2c(=O)n(CC(=O)NCc3ccc(F)cc3)cnc21,-7,1.03
C[C@H]1C[C@@H](CO)CCN1Cc1cnc(C(C)(C)C)s1,-27,3.19
COc1c(C)cc([C@H]2CCc3nc(C(=O)NCCN4CCCCC4)cn3C2)cc1C,-2,0.25
CN(C)CCNC(=O)c1ccc(OCc2nnc(C(=O)Nc3ccc(F)cc3F)s2)cc1,-7,0.64
Cc1c(CNC(=O)N[C@@H](C2CCCC2)C(F)(F)F)cnn1C,-14,1.42
COc1cc(N2C[C@H]3CC[C@@H](C2)N(Cc2c(C)noc2C)C3=O)nc(N)n1,-10,1.92
CCn1ccc(C(=O)N2CCC[C@@]3(C2)Nc2cccnc2N=C3NCc2ccccc2)n1,35,-3.95
COc1ccc(CCN(Cc2ccco2)C(=O)CN(C(C)C)S(=O)(=O)c2c(C)cc(C)cc2C)cc1OC,-7,1.04
Cc1c(C)[n+](O)c([C@H](CC(=O)O)c2cccc(O)c2)n1C,-12,1.51
C[C@@H](c1ccccn1)S(=O)(=O)C1CCCCC1,-6,1.12
Cc1cc(C)c(C(N)=O)c(-c2ccc(C(=O)N3CCCC3)cc2)n1,-7,1.26
Cn1cc([C@H]2CCCN(C(=O)Cc3ccc4c(c3)OCO4)C2)cn1,1,-0.14
CNC(=O)C1CCCC1NC(=O)NCc1nc(C(F)(F)F)cs1 (stereo not given),1,-0.2
